In PubChem BioAssay (NCI):
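Five concentrations, 48 hours, 96-well plates. GI50 marks 50% less growth.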 Certain results were filed several times, with different values. Only these are listed. The source may hold further records. For some assays here: A record mostly stands for its own series of concentrations, which the source does not state; some values may only mark the edge of a range. For some assays here: The values listed for one entry repeat one measurement (runs, samples, wells, individuals or studies). What stands in brackets tells the records apart. The letters are not those of the source and start again with each entry.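 TGI marks complete inhibition of growth.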

Experiments:
Test in all cases: NCI-60 cell line screen, 48 h
SN12C renal = system: SN12C renal
NCI/ADR-RES ovarian = system: NCI/ADR-RES ovarian
IGROV1 ovarian = system: IGROV1 ovarian
DU-145 prostate = system: DU-145 prostate
CAKI-1 renal = system: CAKI-1 renal
HS 578T breast = system: HS 578T breast
HOP-92 NSCLC = system: HOP-92 NSCLC
A498 renal = system: A498 renal
PC-3 prostate = system: PC-3 prostate
NCI-H226 lung = system: NCI-H226 lung
OVCAR-3 ovarian = system: OVCAR-3 ovarian
BT-549 breast = system: BT-549 breast
SNB-75 CNS = system: SNB-75 CNS
MALME-3M melanoma = system: MALME-3M melanoma
T-47D breast = system: T-47D breast
786-0 renal = system: 786-0 renal
A549 NSCLC = system: A549 NSCLC
TK-10 renal = system: TK-10 renal
MOLT-4 leukemia = system: MOLT-4 leukemia
KM12 colon = system: KM12 colon
SK-MEL-2 melanoma = system: SK-MEL-2 melanoma
MDA-MB-231 breast = system: MDA-MB-231 breast
SK-OV-3 ovarian = system: SK-OV-3 ovarian
HT29 colon = system: HT29 colon
OVCAR-5 ovarian = system: OVCAR-5 ovarian
CCRF-CEM leukemia = system: CCRF-CEM leukemia
OVCAR-4 ovarian = system: OVCAR-4 ovarian
RXF 393 renal = system: RXF 393 renal
SF-295 CNS = system: SF-295 CNS
HCC-2998 colon = system: HCC-2998 colon
RPMI-8226 leukemia = system: RPMI-8226 leukemia
M14 melanoma = system: M14 melanoma

## CNc1ccc(-c2cc(=O)oc3ccc(Cl)cc23)cc1
SN12C renal
  GI50: 181 nM and 4.8 µM
NCI/ADR-RES ovarian
  TGI: 440 nM and > 100 µM
IGROV1 ovarian
  GI50: 1.74 µM and 88 nM
DU-145 prostate
  TGI: 4.99 µM and > 100 µM
CAKI-1 renal
  GI50: 82.1 nM and 1.84 µM
HS 578T breast
  TGI: 2.36 µM and > 100 µM
HOP-92 NSCLC
  GI50: 2.64 µM and 83.8 nM
A498 renal
  TGI: 966 nM and 68.2 µM

## C=CCN(/C=C1\C(=O)O[C@H](COC)[C@@]2(C)C1=C(O)C(=O)C1=C2[C@H](OC(C)=O)C[C@]2(C)C(=O)CC[C@@H]12)CC=C
IGROV1 ovarian
  TGI: 20 µM and 1.53 µM
PC-3 prostate
  GI50: > 20 µM and 376 nM
NCI-H226 lung
  TGI: 3.28 µM and 39.1 µM
OVCAR-3 ovarian
  GI50: 2.91 µM and 257 nM
HS 578T breast
  TGI: 5.61 µM and 420 nM
BT-549 breast
  GI50: 1.96 µM and 140 nM
HOP-92 NSCLC
  GI50: 15.5 µM and 198 nM
SNB-75 CNS
  TGI: 20 µM and 683 nM
MALME-3M melanoma
  GI50: 15 nM and 507 nM
T-47D breast
  GI50: 1.65 µM and 165 nM
786-0 renal
  GI50: 6.04 µM and 180 nM
A549 NSCLC
  TGI: 1.43 µM and > 100 µM
TK-10 renal
  TGI: 3.2 µM and 75.8 µM

## COc1cc([C@@H]2c3cc4c(cc3[C@H](O)[C@H]3COC(=O)[C@H]23)OCO4)cc(OC)c1OC
MOLT-4 leukemia
  TGI: 50 µM and < 215 nM
KM12 colon
  TGI: 99.9 nM, < 215 nM [sample A] and > 100 µM [sample B]
SK-MEL-2 melanoma
  TGI: 3.65 µM [sample A, mean of 2 tests] and > 100 µM [sample A, mean of 3 tests] and > 100 µM [sample B, 1 test]
MDA-MB-231 breast
  TGI: < 5 nM [sample A] and > 100 µM [sample B]
SK-OV-3 ovarian
  TGI: 500 nM, > 100 µM [sample A] and 9.32 µM [sample B]
IGROV1 ovarian
  TGI: 927 nM [sample A, mean of 2 tests] and > 100 µM [sample B, mean of 2 tests]
CAKI-1 renal
  TGI: 50 µM, 99 nM [sample A] and > 100 µM [sample B]
HT29 colon
  TGI: < 5 nM and > 7.24 µM
OVCAR-5 ovarian
  GI50: 261 nM [sample A, mean of 3 tests] and < 10 nM [sample B, mean of 2 tests]
NCI-H226 lung
  TGI: 30.1 µM, 3.55 µM [sample A] and < 10 nM [sample B]
CCRF-CEM leukemia
  TGI: 50 µM and 220 nM
OVCAR-4 ovarian
  TGI: 500 nM [sample A, mean of 2 tests] and > 100 µM [sample A, mean of 3 tests] and > 100 µM [sample B, 1 test]
RXF 393 renal
  TGI: < 215 nM [sample A, mean of 3 tests] and > 100 µM [sample B, 1 test]
SF-295 CNS
  TGI: 500 nM [sample A] and > 100 µM [sample B]
OVCAR-3 ovarian
  TGI: 50 µM [sample A, mean of 2 tests] and < 17.5 nM [sample A, mean of 3 tests] and < 10 nM [sample B, 1 test]
HCC-2998 colon
  TGI: 2.27 µM [1 test] and 31.4 nM [mean of 3 tests]
BT-549 breast
  TGI: 29.8 µM, > 76.7 µM [sample A] and < 10 nM [sample B]
HOP-92 NSCLC
  TGI: 22.6 µM, 261 nM [sample A] and 21 µM [sample B]
A498 renal
  TGI: 500 nM, < 13 nM [sample A] and < 21.6 nM [sample B]
RPMI-8226 leukemia
  TGI: < 5 nM [sample A] and > 100 µM [sample B]
SNB-75 CNS
  TGI: < 5 nM [sample A, 1 test] and > 100 µM [sample A, mean of 2 tests] and > 88.2 µM [sample B, mean of 2 tests]
M14 melanoma
  TGI: 28 µM [sample A, mean of 2 tests] and < 10 nM [sample B, 1 test]
MALME-3M melanoma
  GI50: 47.3 µM [sample A, 1 test] and < 10 nM [sample B, mean of 2 tests]
